Test results: PubChem BioAssay AID686971 (National Center for Advancing Translational Sciences (NCATS), 2013)
The campaign covered roughly 360,000 compounds. About 7,500 (2.1%) were called active. This list was built around the results that the source calls inconclusive (neither active nor inactive); the mix of calls is not that of the screen. Calls follow the shape of the dose curve; as a rule, active = well fitted cell-killing curve with a large enough effect; inconclusive = small, poorly fitted or top-dose-only effect, or effect the other way, or another doubt; inactive = no such curve, though single readings can be large or run the other way. No potency is given beside an inconclusive call; the fits are too rough.

assay: qHTS for induction of synthetic lethality in tumor cells producing 2HG: qHTS for the HT-1080-IDH1KD cell line; settings: HT-1080 IDH1 knockdown viability, ATP luminescence, 48 h; activity, negative = toxicity: at 46.1 µM (top of the series) unless noted;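 as to activity, negative = toxicity: 0% = DMSO wells and -100% = cell-free medium wells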
Procedure, shortened: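 Luminescent ATP read-out (CellTiter-Glo, 10 min at room temperature) after 48 h compound exposure at 37 °C gave viability of IDH1-knockdown HT-1080 cells. Activity was normalised to DMSO and cell-free wells, then fitted as concentration-response curves.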
Potency is read from the fitted curve at half-maximal effect; tags tell the direction and shape of the fitted curve.

Row | SMILES | Potency | activity, negative = toxicity
1 | COc1ccc(C(=O)C2CCCN(Cc3cc(Cl)ccc3O)C2)c(OC)c1 (stereo not drawn) | inconclusive [cytotoxic, single point] | –
2 | Cc1ccc(N/C=C/C(=O)c2sc(-c3ccccc3)nc2C)cc1 | inconclusive [cytotoxic, single point] | –
3 | Cc1cc(Nc2ccccc2)c2c([N+](=O)[O-])cc(C)c(C)c2n1 | – | inactive: -15%
4 | COc1cccc2c1C(=O)c1c(O)c3c(c(O)c1C2=O)CC(O)(C(C)=O)CC3OC1CC(N(C)C)C(O)C(C)O1 (stereo not drawn) | active: 0.731 µM | –
5 | COc1ccccc1CNC(=O)CSc1nc(C)cs1 | – | inactive: 2.4%
6 | Cc1cccc(C)c1NC(=O)CN1CCN(C/C=C/c2ccccc2)CC1 | – | inactive: 1.29%
7 | N#CC1=C(N)N2C(=C(C#N)C1c1ccc(Br)cc1)Nc1ccccc12 (stereo not drawn) | inconclusive [cytotoxic, partial curve] | –
8 | CC1(C(=O)NCc2ccccc2)Cc2c(-c3ccc4c(c3)OCO4)ccnc2O1 (stereo not drawn) | inconclusive [cytotoxic, full curve, poor fit] | –
9 | OC(CN1CCN(c2ccccc2Cl)CC1)c1ccccc1 (stereo not drawn) | inconclusive [cytotoxic, single point] | –
10 | COc1ccccc1/C=N/NC(=O)c1c(-c2ccccc2)noc1C | – | inactive: -0.0057%
11 | COc1ccc(-c2nn(C)c(=O)c3ccccc23)cc1NC(=O)Cn1nc(C)c2ccccc2c1=O | inconclusive [cytotoxic, single point] | –
12 | C=CCC[C@@H](Cc1ccc(F)cc1)C(=O)OC[C@@H](NC(=O)[C@H](CC=C)CC(=O)N(CCO)Cc1ccccc1)c1ccccc1 | inconclusive [cytotoxic, single point] | –
13 | COc1ccc(C(=O)N(C)CCCC2CCCC2)cc1OC1CCN(C(C)C)CC1 | inconclusive [cytotoxic, single point] | –
14 | COc1ccc(OCC(=O)Nc2c(C(=O)N(CCN(C)C)Cc3ccco3)oc3ccccc23)cc1 | inconclusive [cytotoxic, single point] | –
15 | COc1ccc(NS(=O)(=O)c2cccc(NC(=O)CCC(=O)c3ccc(Cl)cc3)c2)cc1 | inconclusive [cytotoxic, single point] | –
16 | CCCOC(=O)c1cccc(NC(=O)COc2ccc([N+](=O)[O-])cc2)c1 | inconclusive [cytotoxic, single point] | –
17 | O=C1/C(=C\c2ccco2)NC(=S)N1c1ccccc1 | – | inactive: -5.78%
18 | Cc1cc2nc(-c3ccc(SCC(=O)Nc4ccc(S(=O)(=O)N5CCCC5)cc4)nc3)[nH]c2cc1C | inconclusive [cytotoxic, single point] | –
